# Results published in the supplement of paper PMC6609913.
# Counter-ions that a name gives are not always drawn. ± gives the standard deviation of the averaged measurements. The full ranking holds about 1,300 compounds; the median of “normalised cell viability” is about 1, and the lowest 2% start at about 0.15. The list shows a part of the results.
# Test system: V-C8 + BRCA2 (BRCA2-proficient hamster cells)
# Experiment: normalised cell viability (fraction of plate median); higher = more viable cells (less toxic)
# Settings: 5 µM
# How it was run: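 Library drugs, held as 10 mM stocks in DMSO, were diluted to 5 μM in 100 μl medium and added to 96-well plates of V-C8 hamster cells, either lacking BRCA2 or with BRCA2 restored, 24 h after seeding. Plates ran for 3 days (screen 1) or 6 days (screen 2), alongside solvent-only wells. Viability came from a resazurin readout, median-plate normalised, as the mean of triplicate wells.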
Compound,normalised cell viability (treatment time: 3 days),normalised cell viability (treatment time: 6 days)
C[C@]12CC[C@@H]3c4ccc(O)cc4CC[C@H]3[C@@H]1CC[C@@H]2O [Estradiol-17 beta],0.99 ± 0.026,1.1 ± 0.016
CCCN(CCC)S(=O)(=O)c1ccc(C(=O)O)cc1 [Probenecid],1 ± 0.026,1.16 ± 0.043
Cc1onc(-c2ccccc2)c1-c1ccc(S(N)(=O)=O)cc1 [Valdecoxib],1.06 ± 0.018,1.02 ± 0.056
CCCc1cc(=O)[nH]c(=S)[nH]1 [Propylthiouracil],1.025 ± 0.0057,1.01 ± 0.095
C[N+]1(CCCCC[N+]2(C)CCCC2)CCCC1 [Pentolinium bitartrate],1 ± 0.037,1.06 ± 0.04
Oc1ncnc2[nH]ncc12 [Allopurinol],1.08 ± 0.05,1.07 ± 0.04
CCCCCCC[N+](CC)(CC)CCCCc1ccc(Cl)cc1 [Clofilium tosylate],0.897 ± 0.063,0.935 ± 0.094
CNCCCC1c2ccccc2C=Cc2ccccc21 [Protriptyline hydrochloride],0.942 ± 0.063,0.966 ± 0.089
C[C@]12CCC(=O)C=C1CC[C@@H]1[C@@H]2[C@@H](O)C[C@@]2(C)[C@H]1CC[C@]2(O)C(=O)CO [Hydrocortisone base],1.06 ± 0.031,1.07 ± 0.17
CN[C@@H]1[C@H](O[C@H]2[C@H](O[C@H]3[C@H](O)[C@@H](O)[C@H](N=C(N)N)[C@@H](O)[C@@H]3N=C(N)N)O[C@@H](C)[C@]2(O)C=O)O[C@@H](CO)[C@H](O)[C@H]1O [Streptomycin sulfate],1.02 ± 0.021,1.15 ± 0.08
Nc1nc(Cl)nc2c1ncn2[C@H]1C[C@H](O)[C@@H](CO)O1 [Cladribine],0.162 ± 0.0053,0.165 ± 0.011
OCCOCCN1CCN(C2=Nc3ccccc3Sc3ccccc32)CC1 [Quetiapine],1.065 ± 0.0087,1.12 ± 0.023
CCC(=O)O[C@@H](O[P@](=O)(CCCCc1ccccc1)CC(=O)N1C[C@H](C2CCCCC2)C[C@H]1C(=O)O)C(C)C [Fosinopril],1.04 ± 0.051,1.06 ± 0.021
COc1cccc2c1C(=O)c1c(O)c3c(c(O)c1C2=O)C[C@@](O)(C(=O)CO)C[C@@H]3O[C@H]1C[C@H](N)[C@H](O)[C@H](C)O1 [Doxorubicin hydrochloride],0.12 ± 0.0088,0.122 ± 0.0099
CC1(C)S[C@@H]2[C@H](NC(=O)[C@H](N)c3ccc(O)cc3)C(=O)N2[C@H]1C(=O)O [Amoxicillin],1.17 ± 0.094,0.971 ± 0.091
CCCCC(=O)O[C@H]1CC[C@H]2[C@@H]3CCc4cc(O)ccc4[C@H]3CC[C@]12C [Estradiol Valerate],1.17 ± 0.33,1.12 ± 0.24
N=C(N)c1ccc(OCCCCCOc2ccc(C(=N)N)cc2)cc1 [Pentamidine isethionate],0.898 ± 0.076,0.844 ± 0.11
Fc1ccc(C(c2ccc(F)cc2)N2CCN(C/C=C/c3ccccc3)CC2)cc1 [Flunarizine dihydrochloride],0.932 ± 0.058,0.931 ± 0.015
Cc1oncc1C(=O)Nc1ccc(C(F)(F)F)cc1 [Leflunomide],1.01 ± 0.062,0.988 ± 0.032
COc1ccc(C(Cl)=C(c2ccc(OC)cc2)c2ccc(OC)cc2)cc1 [Chlorotrianisene],1.06 ± 0.02,1.16 ± 0.31
O=C(O)c1cccnc1Nc1cccc(C(F)(F)F)c1 [Niflumic acid],1.04 ± 0.027,1.03 ± 0.034
CC(CCc1ccccc1)NCC(O)c1ccc(O)c(C(N)=O)c1 (stereo unspecified) [Labetalol hydrochloride],1.04 ± 0.022,1.02 ± 0.012

Compound,normalised cell viability (treatment time: 3 days),normalised cell viability (treatment time: 6 days)
CCOC(=O)[C@H](CCc1ccccc1)N[C@@H](C)C(=O)N1Cc2ccccc2C[C@H]1C(=O)O [Quinapril HCl],0.9969 ± 0.0022,0.954 ± 0.092
CN1C(C)(C)CCCC1(C)C [Pempidine tartrate],1.1 ± 0.035,1.007 ± 0.0034
Cc1onc(-c2c(Cl)cccc2Cl)c1C(=O)N[C@@H]1C(=O)N2[C@@H]1SC(C)(C)[C@@H]2C(=O)O [Dicloxacillin sodium salt hydrate],1.04 ± 0.073,0.953 ± 0.029
CN(C)/N=N/c1[nH]cnc1C(N)=O [Dacarbazine],1 ± 0.022,0.992 ± 0.052
C[N+](C)(C)CCCCCC[N+](C)(C)C [Hexamethonium dibromide dihydrate],1.06 ± 0.019,0.993 ± 0.059
CC[N+](C)(C)Cc1ccccc1Br [Bretylium tosylate],0.9932 ± 0.0068,0.977 ± 0.013
Cc1cc2c(cc1S(N)(=O)=O)S(=O)(=O)CCC2 [Meticrane],1.01 ± 0.018,0.997 ± 0.045
NCCNCCNCCNCCN [Tetraethylenepentamine pentahydrochloride],0.972 ± 0.03,1.01 ± 0.024
Clc1cnccn1 [2-Chloropyrazine],1.02 ± 0.036,1.02 ± 0.071
COC(=O)Nc1nc2cc(C(=O)c3ccccc3)ccc2[nH]1 [Mebendazole],0.163 ± 0.013,0.151 ± 0.0072
CC1(C)S[C@@H]2[C@H](NC(=O)[C@H](NC(=O)N3CCNC3=O)c3ccccc3)C(=O)N2[C@H]1C(=O)O [Azlocillin sodium salt],0.986 ± 0.02,0.758 ± 0.17
CC(C)c1ccc2oc3nc(N)c(C(=O)O)cc3c(=O)c2c1 [Amlexanox],1.04 ± 0.021,1.03 ± 0.071
CSc1ccc2c(c1)C(N1CCN(C)CC1)Cc1ccccc1S2 (stereo unspecified) [Methiothepin maleate],0.79 ± 0.056,0.783 ± 0.02
CC(C(=O)O)c1ccc2c(c1)Cc1cccnc1O2 (stereo unspecified) [Pranoprofen],1.23 ± 0.031,1.03 ± 0.057
Cc1c(C)c2c(c(C)c1O)CCC(C)(COc1ccc(CC3SC(=O)NC3=O)cc1)O2 (stereo unspecified) [Troglitazone],0.748 ± 0.0081,0.709 ± 0.054
COC(c1ccccc1)(c1ccccc1)[C@H](Oc1nc(C)cc(C)n1)C(=O)O [Ambrisentan],1.02 ± 0.066,1.14 ± 0.086
COc1ccc([C@@H]2CC(=O)c3c(O)cc(O[C@@H]4O[C@H](CO[C@@H]5O[C@@H](C)[C@H](O)[C@@H](O)[C@H]5O)[C@@H](O)[C@H](O)[C@H]4O)cc3O2)cc1O [Hesperidin],1 ± 0.04,1.05 ± 0.086
CC(C)(C(=O)O)c1ccc(C(O)CCCN2CCC(C(O)(c3ccccc3)c3ccccc3)CC2)cc1 (stereo unspecified) [Fexofenadine HCl],1.02 ± 0.051,1.04 ± 0.026
CN(C)CCCN1c2ccccc2Sc2ccccc21 [Promazine hydrochloride],1.05 ± 0.046,0.665 ± 0.067
Cc1cc(C(C)(C)C)c(O)c(C)c1CC1=NCCN1 [Oxymetazoline hydrochloride],1.02 ± 0.063,0.969 ± 0.033
NS(=O)(=O)c1cc(C(=O)O)cc(N2CCCC2)c1Oc1ccccc1 [Piretanide],0.989 ± 0.054,0.982 ± 0.098
